Results published in PubChem BioAssay AID588855 (National Center for Advancing Translational Sciences (NCATS), 2011).
In all, about 410,000 compounds went through this assay and about 5,000 (1.2%) were called active. Inconclusive results, whose numbers are uncertain, are shown with a selection of clear calls. The call rests on the fitted dose curve; in most records, active means well fitted inhibition curve with a large enough effect; inconclusive means small, poorly fitted or top-dose-only effect; inactive means no such curve, though single readings can be large or run the other way. Potencies of inconclusive entries are doubtful fits and often do not repeat.

experiment: qHTS for Inhibitors of TGF-b; conditions: HepG2 CAGA-GFP TGF-b/SMAD3 reporter, GFP fluorescence, 18 h, TGF-beta stimulated, 500 pg/mL final; series mostly up to 46.1 µM; further: nearly all actives have a fitted effect of over 65% in size
How it was run: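 Read-out: total well GFP (ex488/em500-530) summed from mean per-cell fluorescence. Cells: HEPG2 CAGA-GFP, 1% FBS DMEM, 18 h at 37 degrees C with 500 pg/mL final TGF-beta. Unstimulated wells served as the full-inhibition control; stimulated DMSO wells = 0%.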
Potency means the concentration at half of the fitted maximal effect; tags describe the fitted curve by direction and shape.

Compound | Potency
COc1ccc(C(=O)NCCCC2CCCC2)cc1OC1CCN(C(C)C)CC1 | inactive
O=C(c1ccc2c(c1)N(Cc1ccc(Cl)cc1)C(=O)c1ccccc1S2=O)N1CCC(Cc2ccccc2)CC1 (configuration not stated) | inconclusive: 7.08 µM [inhibitor, partial curve, poor fit]
C/C(=N\NC(=O)C(N)=O)c1ccc(O)cc1O | inactive
COc1cccc(/C=N/NC(=O)c2ccc(-c3ccccc3)cc2)c1O | inconclusive: 2.24 µM [inhibitor, full curve]
COCCCn1c(=O)c2sccc2n2c(CCCC(=O)Nc3cccc(C(F)(F)F)c3)nnc12 | inconclusive: 20 µM [inhibitor, single point]
Cc1cc(Cn2nnc(-c3ccc(Br)cc3)n2)cc(C)c1O | inconclusive: 22.4 µM [inhibitor, single point]
CSc1oc(-c2ccccc2)nc1S(=O)(=O)c1ccc(C)cc1 | inactive
CSc1nc2sc3c(c2c(=O)n1C)CCC(C)C3 (configuration not stated) | inactive
COc1ccc(N(C)S(=O)(=O)c2cccc(C(=O)Nc3nnc(C)s3)c2)cc1 | inactive
COc1cc(OC)c(C(=O)Nc2ccc(C(=O)c3ccccc3)cc2)cc1OC | inactive
Cc1ccc(C)c(N2CCN(C(=O)CCc3nc(-c4ccccc4)no3)CC2)c1 | inconclusive: 35.5 µM [inhibitor, single point]
O=Cc1c(-c2ccc(Cl)cc2)oc2ccc(O)cc12 | inactive
Cc1nn(-c2ccccc2)c(C)c1NC(=O)COC(=O)C1CC(=O)N(CCc2ccccc2)C1 (configuration not stated) | inactive
Cc1cccc(N2CCN(C(=O)CNC(=O)c3ccccc3)CC2)c1C | inactive
O=C(Nc1ccn(CCCNCCc2ccccn2)c(=O)n1)OCc1ccccc1 | inactive
O=C(Cc1cccs1)N1CCC(c2nc3c(nnn3Cc3ccccc3Cl)c(=O)[nH]2)CC1 | inconclusive: 35.5 µM [inhibitor, single point]
Cc1ccc(-n2nc3c(=O)n(CC(=O)NCc4ccccc4)nc(C)c3c2C)cc1 | inconclusive: 3.98 µM [inhibitor, single point]
O=[N+]([O-])c1ccc(Nc2cccc3c2[nH]c2c(-c4ccccc4)nccc23)c([N+](=O)[O-])c1 | inactive
COc1ccccc1N1CCN(Cc2nnc(-c3ccccc3C)o2)CC1 | inactive
O=S(=O)(Nc1ccc(C(F)(F)F)cc1)c1ccc2c(c1)OCCO2 | inconclusive: 15.8 µM [inhibitor, single point]
CN(Cc1ccccc1)C(=O)c1cccc(NC(=O)Cc2cccc([N+](=O)[O-])c2)c1 | inconclusive: 10 µM [inhibitor, partial curve, poor fit]
O=[N+]([O-])c1cc(S(=O)(=O)c2ccc(N3CCCCC3)c([N+](=O)[O-])c2)ccc1N1CCCCC1 | inactive
Cc1csc(N(C(=O)c2cccc(S(=O)(=O)N(C)C)c2)c2ccccc2)n1 | inconclusive: 35.5 µM [inhibitor, single point]
Cc1n[nH]c(C)c1N=Nc1ccc(Br)cc1 | inconclusive: 22.4 µM [inhibitor, single point]

Compound | Potency
CCc1nnc(NS(=O)(=O)c2ccc(NC(=O)c3ccc([N+](=O)[O-])s3)cc2)s1 | inconclusive: 35.5 µM [inhibitor, single point]
CC(=O)c1cccc(NS(=O)(=O)c2ccc(-c3cnc(C4CC4)o3)cc2)c1 | inactive
O=C(Cn1cc2c(n1)CCCC2)NCCCN1CCN(c2ccccc2F)CC1 | inactive
Cc1ccc(NC(=O)CSCC(=O)Nc2cccc(S(=O)(=O)N3CCCCCC3)c2)cc1 | inconclusive: 35.5 µM [inhibitor, single point]
CCN(C(=O)COn1nnc2ccc(S(=O)(=O)N(C)C)cc21)C1CCS(=O)(=O)C1 (configuration not stated) | inactive
Cc1ccc(S(=O)(=O)/N=C2/NC(=O)/C(=C/c3ccccc3)S2)cc1 | inconclusive: 31.6 µM [inhibitor, single point]
CCNc1nc(SCC(=O)Nc2ccc(Cl)c(Cl)c2)nc(N2CCOCC2)n1 | inactive
COc1ccc(-c2nc3cc(C)c(Br)c(C)n3c2Cc2cccc(F)c2)cc1OC | inconclusive: 0.708 µM [inhibitor, full curve, poor fit]
CCOC(=O)c1ccc(NC(=O)NCc2ccncc2)cc1 | inconclusive: 3.98 µM [inhibitor, single point]
Cc1ccc(C(C)C)c(OCc2nc(-c3nonc3N)no2)c1 | inactive
Cc1c(Cl)cccc1NC(=O)CCN1CCCCCC1 | inconclusive: 35.5 µM [inhibitor, single point]
COc1ccc(C(=O)CC(SCC(NC(C)=O)C(=O)O)c2ccc(Cl)cc2)cc1OC (configuration not stated) | inconclusive: 35.5 µM [inhibitor, single point]
CC(C)NC(=O)CN1C(=O)c2cccnc2Sc2ccccc21 | inactive
FC(F)(F)c1cnc2c(c1)[nH]c(=S)n2-c1ccc(Cl)cc1 | inconclusive: 25.1 µM [inhibitor, single point]
N#Cc1c(-c2ccco2)cc(-c2ccccc2)[nH]c1=O | inconclusive: 2.24 µM [inhibitor, partial curve, poor fit]
CCN1C(=O)[C@H]2[C@@H](c3ccc(C)cc3)N3C(=O)N(c4cccc(Cl)c4)C(=O)[C@@]3(Cc3ccccc3)[C@H]2C1=O | inconclusive: 7.08 µM [inhibitor, partial curve]
O=C(OCc1cc(=O)n2nc(C3CC3)sc2n1)c1ccccc1Cl | inconclusive: 0.251 µM [inhibitor, full curve]
Cc1cc([N+](=O)[O-])cc2ncccc12 | inactive
C/C(=N\Nc1nc2ccccc2s1)c1cccs1 | inconclusive: 22.4 µM [inhibitor, single point]
COCC(=O)N1CCC(Oc2ccc(C(=O)N3CCCCCCC3)cc2)CC1 | inactive
COc1ccc(S(=O)(=O)Nc2ccc3ccccc3c2)cc1C | inconclusive: 14.1 µM [inhibitor, single point]
CN(C)S(=O)(=O)N(CC(=O)Nc1ccccc1)c1ccccc1 | inactive
COc1ccc(NC(=O)Cn2nc(C(F)(F)F)c3c2CCCC3)cc1OC | inconclusive: 7.94 µM [inhibitor, partial curve, poor fit]
